Consider nine molecules from PMC11549370, “Two distinct regulatory pathways govern Cct2-Atg8 binding in the process of solid aggrephagy” (EMBO Reports, 2024).

Chains of the proteins cited; added tags and fusions are not shown. Residues count along the entry.
UniProt Q9BXW4, residues 1-126: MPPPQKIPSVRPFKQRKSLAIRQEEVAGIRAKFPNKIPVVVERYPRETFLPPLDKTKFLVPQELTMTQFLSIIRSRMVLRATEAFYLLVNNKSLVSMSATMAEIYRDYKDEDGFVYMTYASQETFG
UniProt P39076: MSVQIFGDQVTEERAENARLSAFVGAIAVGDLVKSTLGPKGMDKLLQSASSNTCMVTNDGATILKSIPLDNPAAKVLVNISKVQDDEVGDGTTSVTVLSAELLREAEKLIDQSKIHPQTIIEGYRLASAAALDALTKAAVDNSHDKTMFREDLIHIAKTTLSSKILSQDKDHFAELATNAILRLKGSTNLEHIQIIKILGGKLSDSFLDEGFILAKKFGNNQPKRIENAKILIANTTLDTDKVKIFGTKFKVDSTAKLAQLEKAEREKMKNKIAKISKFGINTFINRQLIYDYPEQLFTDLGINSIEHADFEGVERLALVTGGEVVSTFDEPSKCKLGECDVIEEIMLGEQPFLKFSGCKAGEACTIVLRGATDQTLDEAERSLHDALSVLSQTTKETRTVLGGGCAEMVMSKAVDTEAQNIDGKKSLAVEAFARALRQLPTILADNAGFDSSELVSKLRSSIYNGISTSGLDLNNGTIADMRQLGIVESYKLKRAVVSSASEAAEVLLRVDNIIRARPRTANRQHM
UniProt P12612: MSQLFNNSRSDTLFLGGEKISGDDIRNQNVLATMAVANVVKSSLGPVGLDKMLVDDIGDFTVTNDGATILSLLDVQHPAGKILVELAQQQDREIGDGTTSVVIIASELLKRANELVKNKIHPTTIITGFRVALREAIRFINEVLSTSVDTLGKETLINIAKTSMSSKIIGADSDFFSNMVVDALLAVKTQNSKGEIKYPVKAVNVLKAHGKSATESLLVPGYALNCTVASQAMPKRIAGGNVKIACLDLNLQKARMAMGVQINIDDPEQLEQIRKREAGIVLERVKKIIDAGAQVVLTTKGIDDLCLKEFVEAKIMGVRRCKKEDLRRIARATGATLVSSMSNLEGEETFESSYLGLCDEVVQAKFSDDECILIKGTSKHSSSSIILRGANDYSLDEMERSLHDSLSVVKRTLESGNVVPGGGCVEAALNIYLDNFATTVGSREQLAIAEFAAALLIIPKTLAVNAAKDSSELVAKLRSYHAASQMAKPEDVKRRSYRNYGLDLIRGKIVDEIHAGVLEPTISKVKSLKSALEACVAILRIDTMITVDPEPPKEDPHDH
UniProt P39078: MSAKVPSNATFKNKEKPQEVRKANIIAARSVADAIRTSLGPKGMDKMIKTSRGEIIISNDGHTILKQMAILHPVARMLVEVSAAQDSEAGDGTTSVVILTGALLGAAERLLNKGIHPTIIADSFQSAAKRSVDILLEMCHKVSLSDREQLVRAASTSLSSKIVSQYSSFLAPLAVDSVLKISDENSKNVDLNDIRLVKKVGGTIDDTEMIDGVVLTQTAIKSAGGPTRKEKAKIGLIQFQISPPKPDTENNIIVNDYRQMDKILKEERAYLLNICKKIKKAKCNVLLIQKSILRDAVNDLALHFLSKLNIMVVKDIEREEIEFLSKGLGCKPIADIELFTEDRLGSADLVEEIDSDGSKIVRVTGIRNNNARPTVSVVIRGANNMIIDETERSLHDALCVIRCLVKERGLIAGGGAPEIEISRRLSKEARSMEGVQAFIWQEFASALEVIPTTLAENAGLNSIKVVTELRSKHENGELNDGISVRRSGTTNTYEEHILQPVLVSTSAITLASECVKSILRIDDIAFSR
UniProt P40413: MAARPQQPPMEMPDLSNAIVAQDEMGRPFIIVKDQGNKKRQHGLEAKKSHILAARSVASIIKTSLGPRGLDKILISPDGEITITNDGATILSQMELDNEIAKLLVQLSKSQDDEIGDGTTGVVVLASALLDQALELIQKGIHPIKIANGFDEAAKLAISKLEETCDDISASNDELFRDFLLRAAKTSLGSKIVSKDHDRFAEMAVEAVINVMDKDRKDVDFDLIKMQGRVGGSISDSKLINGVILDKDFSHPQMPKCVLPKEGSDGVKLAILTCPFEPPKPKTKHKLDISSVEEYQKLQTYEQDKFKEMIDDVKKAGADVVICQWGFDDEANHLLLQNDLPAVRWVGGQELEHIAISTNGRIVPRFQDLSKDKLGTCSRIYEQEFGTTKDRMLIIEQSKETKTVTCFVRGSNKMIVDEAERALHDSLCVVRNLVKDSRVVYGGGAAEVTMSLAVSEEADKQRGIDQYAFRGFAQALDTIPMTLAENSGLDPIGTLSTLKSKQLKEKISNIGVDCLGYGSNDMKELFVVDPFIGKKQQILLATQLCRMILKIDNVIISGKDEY
UniProt P47079: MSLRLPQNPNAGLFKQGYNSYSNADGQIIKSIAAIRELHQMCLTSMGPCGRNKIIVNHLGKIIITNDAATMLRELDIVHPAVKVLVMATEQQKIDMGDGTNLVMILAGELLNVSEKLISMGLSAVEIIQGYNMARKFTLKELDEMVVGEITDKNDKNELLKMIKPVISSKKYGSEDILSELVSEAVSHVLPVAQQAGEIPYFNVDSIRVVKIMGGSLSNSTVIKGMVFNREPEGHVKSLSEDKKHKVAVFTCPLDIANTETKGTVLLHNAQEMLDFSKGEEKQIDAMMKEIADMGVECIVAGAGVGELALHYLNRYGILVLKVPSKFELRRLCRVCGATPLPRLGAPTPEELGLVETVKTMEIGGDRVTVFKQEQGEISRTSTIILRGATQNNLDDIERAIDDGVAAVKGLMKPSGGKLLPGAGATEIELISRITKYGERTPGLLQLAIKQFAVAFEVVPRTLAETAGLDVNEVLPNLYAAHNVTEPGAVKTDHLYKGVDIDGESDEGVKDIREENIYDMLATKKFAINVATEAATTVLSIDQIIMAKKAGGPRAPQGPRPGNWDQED
UniProt Q8TDY2: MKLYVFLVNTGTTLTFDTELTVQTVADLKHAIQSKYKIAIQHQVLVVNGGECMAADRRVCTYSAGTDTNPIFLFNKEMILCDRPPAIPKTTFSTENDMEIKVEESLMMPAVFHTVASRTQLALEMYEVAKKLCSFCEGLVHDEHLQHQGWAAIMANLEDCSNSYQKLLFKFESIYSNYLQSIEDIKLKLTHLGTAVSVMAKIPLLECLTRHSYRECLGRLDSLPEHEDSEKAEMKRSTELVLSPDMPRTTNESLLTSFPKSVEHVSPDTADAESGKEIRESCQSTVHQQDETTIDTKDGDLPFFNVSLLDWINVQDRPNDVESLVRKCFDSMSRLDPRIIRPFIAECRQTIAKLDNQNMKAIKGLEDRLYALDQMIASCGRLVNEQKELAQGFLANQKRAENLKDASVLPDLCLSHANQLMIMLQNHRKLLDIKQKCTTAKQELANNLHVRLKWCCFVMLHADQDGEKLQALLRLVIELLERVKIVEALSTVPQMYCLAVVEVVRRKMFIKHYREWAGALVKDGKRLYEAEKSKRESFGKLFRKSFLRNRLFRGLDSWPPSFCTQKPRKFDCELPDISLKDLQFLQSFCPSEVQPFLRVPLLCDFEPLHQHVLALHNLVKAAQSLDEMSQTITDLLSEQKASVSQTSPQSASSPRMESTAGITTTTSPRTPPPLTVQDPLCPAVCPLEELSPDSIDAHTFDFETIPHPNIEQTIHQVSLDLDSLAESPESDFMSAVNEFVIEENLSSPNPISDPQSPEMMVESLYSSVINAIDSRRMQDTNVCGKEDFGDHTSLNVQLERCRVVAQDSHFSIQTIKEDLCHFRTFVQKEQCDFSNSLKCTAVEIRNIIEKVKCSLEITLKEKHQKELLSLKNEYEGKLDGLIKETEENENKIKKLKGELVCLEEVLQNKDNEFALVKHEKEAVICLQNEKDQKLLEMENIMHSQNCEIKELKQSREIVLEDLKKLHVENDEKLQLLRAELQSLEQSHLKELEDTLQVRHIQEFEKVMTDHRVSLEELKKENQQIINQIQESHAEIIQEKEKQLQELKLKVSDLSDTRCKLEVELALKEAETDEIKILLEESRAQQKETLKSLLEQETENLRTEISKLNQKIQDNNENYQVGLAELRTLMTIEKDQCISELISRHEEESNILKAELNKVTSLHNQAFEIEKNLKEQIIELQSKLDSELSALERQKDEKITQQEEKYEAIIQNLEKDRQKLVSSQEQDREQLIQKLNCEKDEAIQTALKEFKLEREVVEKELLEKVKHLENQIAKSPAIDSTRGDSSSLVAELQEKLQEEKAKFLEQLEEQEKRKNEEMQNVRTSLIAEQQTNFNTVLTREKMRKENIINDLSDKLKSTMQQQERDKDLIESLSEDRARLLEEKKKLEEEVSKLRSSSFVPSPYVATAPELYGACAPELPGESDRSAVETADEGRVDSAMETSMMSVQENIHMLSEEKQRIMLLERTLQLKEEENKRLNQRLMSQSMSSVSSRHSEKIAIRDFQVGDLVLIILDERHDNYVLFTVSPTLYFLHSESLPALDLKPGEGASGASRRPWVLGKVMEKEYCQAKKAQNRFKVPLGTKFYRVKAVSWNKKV

In assay [1] the target is T1, 3×FLAG-Atg8 (S. cerevisiae) (UniProt P38182).
T1 sequence: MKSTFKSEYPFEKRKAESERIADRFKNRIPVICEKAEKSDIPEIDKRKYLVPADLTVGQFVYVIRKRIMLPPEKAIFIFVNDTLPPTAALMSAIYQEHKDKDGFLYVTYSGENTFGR
Put plainly: co-IP; lysates of ape1∆ atg11∆ yeast with Ape1 P22L, nutrient-rich conditions; anti-FLAG agarose beads, western blot with anti-HA. A general note: A western blot detects proteins with antibodies after separation by electrophoresis.

Assay [2] addresses T2, Atg1-3×FLAG (S. cerevisiae) (UniProt P53104).
T2 sequence: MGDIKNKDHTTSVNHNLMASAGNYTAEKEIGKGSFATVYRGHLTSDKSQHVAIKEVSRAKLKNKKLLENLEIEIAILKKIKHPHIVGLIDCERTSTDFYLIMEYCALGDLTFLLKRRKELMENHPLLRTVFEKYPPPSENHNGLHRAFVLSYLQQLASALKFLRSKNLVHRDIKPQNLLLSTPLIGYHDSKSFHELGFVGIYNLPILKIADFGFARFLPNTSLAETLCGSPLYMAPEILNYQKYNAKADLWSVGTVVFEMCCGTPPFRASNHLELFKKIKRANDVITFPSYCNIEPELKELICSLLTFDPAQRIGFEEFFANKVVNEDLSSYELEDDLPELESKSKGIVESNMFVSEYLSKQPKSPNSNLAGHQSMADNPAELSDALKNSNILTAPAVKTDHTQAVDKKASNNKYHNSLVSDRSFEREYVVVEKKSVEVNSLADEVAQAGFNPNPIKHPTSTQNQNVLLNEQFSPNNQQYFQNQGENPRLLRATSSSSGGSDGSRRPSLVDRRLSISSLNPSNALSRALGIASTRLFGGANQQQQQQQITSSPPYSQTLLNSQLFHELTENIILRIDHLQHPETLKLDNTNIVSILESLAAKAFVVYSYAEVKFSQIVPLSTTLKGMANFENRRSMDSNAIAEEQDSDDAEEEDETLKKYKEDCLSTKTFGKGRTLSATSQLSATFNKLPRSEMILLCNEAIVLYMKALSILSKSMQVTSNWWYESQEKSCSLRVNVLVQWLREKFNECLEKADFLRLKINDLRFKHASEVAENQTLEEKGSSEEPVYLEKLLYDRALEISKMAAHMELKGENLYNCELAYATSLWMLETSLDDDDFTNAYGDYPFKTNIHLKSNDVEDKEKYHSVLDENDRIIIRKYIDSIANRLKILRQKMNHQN
Put plainly: co-IP; lysates of yeast co-expressing the tagged proteins, nutrient-rich conditions, with or without Ape1 P22L; anti-FLAG or anti-HA agarose beads, western blot; also done in atg1∆, atg2∆, atg14∆ and atg8∆ strains.

In assay [3] the target is T1, 3×FLAG-Atg8 (S. cerevisiae). The description is as above.
Assay [4] has as its target T3, Atg11-3×FLAG (S. cerevisiae) (UniProt Q12527).
T3 sequence: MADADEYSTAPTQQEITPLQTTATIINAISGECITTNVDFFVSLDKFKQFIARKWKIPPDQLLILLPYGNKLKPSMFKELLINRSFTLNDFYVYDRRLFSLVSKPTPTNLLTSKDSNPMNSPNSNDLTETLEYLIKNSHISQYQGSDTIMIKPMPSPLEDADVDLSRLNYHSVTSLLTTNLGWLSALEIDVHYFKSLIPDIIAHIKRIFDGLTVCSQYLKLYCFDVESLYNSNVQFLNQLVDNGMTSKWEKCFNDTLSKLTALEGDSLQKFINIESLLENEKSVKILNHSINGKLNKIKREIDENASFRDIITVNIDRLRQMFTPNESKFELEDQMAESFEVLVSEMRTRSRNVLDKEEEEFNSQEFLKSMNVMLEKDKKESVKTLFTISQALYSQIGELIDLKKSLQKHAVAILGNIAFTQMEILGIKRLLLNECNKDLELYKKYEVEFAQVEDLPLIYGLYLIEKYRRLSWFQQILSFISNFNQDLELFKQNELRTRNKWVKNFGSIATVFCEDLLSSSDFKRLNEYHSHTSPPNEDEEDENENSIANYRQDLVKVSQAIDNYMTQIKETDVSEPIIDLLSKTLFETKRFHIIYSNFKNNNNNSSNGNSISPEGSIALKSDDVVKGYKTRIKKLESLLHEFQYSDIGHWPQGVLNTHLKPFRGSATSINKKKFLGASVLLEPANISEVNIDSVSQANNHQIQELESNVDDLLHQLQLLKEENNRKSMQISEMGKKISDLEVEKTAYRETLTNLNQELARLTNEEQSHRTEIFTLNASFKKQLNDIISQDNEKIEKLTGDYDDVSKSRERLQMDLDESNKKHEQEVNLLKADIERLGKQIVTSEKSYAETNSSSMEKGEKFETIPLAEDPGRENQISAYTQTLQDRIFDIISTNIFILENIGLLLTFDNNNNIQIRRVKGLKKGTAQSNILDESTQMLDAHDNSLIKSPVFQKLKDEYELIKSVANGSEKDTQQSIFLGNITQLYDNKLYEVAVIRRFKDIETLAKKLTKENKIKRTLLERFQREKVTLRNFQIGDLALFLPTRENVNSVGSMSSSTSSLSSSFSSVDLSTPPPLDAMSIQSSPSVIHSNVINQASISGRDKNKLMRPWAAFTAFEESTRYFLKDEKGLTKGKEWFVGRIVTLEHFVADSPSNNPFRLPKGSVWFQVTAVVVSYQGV
The assay is described as above.

For the next assay, the target named is T4, FLAG-CCT2 (human) (UniProt P78371).
T4 sequence: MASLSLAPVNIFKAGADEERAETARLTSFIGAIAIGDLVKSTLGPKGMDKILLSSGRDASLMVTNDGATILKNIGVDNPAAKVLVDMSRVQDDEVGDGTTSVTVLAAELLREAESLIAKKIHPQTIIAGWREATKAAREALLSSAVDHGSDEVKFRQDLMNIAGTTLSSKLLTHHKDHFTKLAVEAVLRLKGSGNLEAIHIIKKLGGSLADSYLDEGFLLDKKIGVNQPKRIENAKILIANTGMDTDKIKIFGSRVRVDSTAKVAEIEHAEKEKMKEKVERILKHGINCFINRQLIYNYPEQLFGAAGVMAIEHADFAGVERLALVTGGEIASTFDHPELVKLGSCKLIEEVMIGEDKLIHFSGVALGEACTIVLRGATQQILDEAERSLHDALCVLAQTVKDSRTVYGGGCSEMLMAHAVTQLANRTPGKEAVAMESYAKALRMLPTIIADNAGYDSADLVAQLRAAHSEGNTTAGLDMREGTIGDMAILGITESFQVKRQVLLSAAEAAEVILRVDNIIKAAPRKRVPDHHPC
Put plainly: co-IP; HEK293T co-transfected with the tagged proteins and SOD1 G93A-GFP; lysis in 20 mM Tris-HCl pH 7.5, 150 mM NaCl, 1 mM EDTA, 0.5% NP40; anti-FLAG or anti-HA agarose, 4 h, 4 °C; western blot.

The target of assay [5] is FLAG-LC3C (UniProt Q9BXW4). Description: co-IP; WT, FIP200 KO or WIPI2 KO HeLa cells co-transfected with FLAG-LC3C, HA-CCT2 and SOD1 G93A-GFP; anti-FLAG agarose, western blot with anti-HA.
The target of assay [6] is FLAG-LC3C (UniProt Q9BXW4). Put plainly: co-IP; HEK293T co-transfected with the tagged proteins and SOD1 G93A-GFP; lysis in 20 mM Tris-HCl pH 7.5, 150 mM NaCl, 1 mM EDTA, 0.5% NP40; anti-FLAG or anti-HA agarose, 4 h, 4 °C; western blot.
Assay [7] has as its target FLAG-LC3C (UniProt Q9BXW4). Description: co-IP; WT or ULK1 KO MEF cells co-transfected with FLAG-LC3C, HA-CCT2 and SOD1 G93A-GFP; anti-FLAG agarose, western blot with anti-HA.
For the next assay, the target named is GST-LC3C (UniProt Q9BXW4). Description: pull-down; in vitro GST pulldown: GST-tagged protein on GST beads, prey added in binding buffer B (1 mM EDTA, 1 mM EGTA, 150 mM NaCl, 1% Triton X-100 in 1×PBS), 3 h, 4 °C; SDS-PAGE, Coomassie staining; both purified.

Positions count from the first letter of the chain named. Numbers in names are those of the source. No constants are given. Whether binding was seen depends on the method and setting. For some assays here: Binding seen in cells or lysates may run through a third protein. Some entries that bind do so weakly or less than the wild type. For some assays here: Tags and fused reporters may be left off the sequences shown.

Turning to 3×HA-Cct2 (from UniProt P39076 1-527), the binding result is reported as “binds weakly” in assay [1], “binds” in assay [2], “binds” in [3] and “binds” in assay [4]. As to HA-Cct1 (from UniProt P12612 1-559), the binding entry in [3] was “no binding”. Still for that read-out and setting: the value for HA-Cct4 (from UniProt P39078 1-528) was “no binding”. For the molecule HA-Cct5 (from UniProt P40413 1-562), in assay [3], the binding result was “no binding”. Turning to HA-Cct8 (from UniProt P47079 1-568), in assay [3], the binding entry is reported as “no binding”. In the case of HA-FIP200 (from UniProt Q8TDY2 1-1594), the binding entry in the assay with FLAG-CCT2 (human) is listed as “binds”.

B1: HA-CCT2 (protein, UniProt P78371 1-535)
chain: T4 sequence
For the molecule B1, the binding result in the assay with FLAG-LC3C [5], in the assay with FLAG-LC3C [6] and with FLAG-LC3C [7] was “binds” in each case.

B2: TF-hCCT2 S458A (protein, UniProt P78371 1-535)
chain: T4 sequence with S458A
As for B2, the binding result in the assay with GST-LC3C is recorded as “binds”.

B3: TF-hCCT2 (protein, UniProt P78371 1-535)
chain: T4 sequence
For the molecule B3, in the assay with GST-LC3C, the binding result is listed as “binds”.
